These results are taken from the supplement of paper PMC9446081.

In all, about 39,000 compounds went through this assay and about 220 (0.56%) showed activity. This is one part of the list.
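Note: static incubation at 37 °C against the wild-type strain, values averaged over two biological replicates.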

In the assay the test system is Escherichia coli K-12 BW25113. The assay can be described thus: relative growth (OD600 normalised to plate interquartile mean) (fraction); higher = less growth inhibition, active = 0.2 or less. Particulars: 50 µM; LB; incubation time: overnight (16-24 h).
As for `C[C@H]1CCCCO[C@H](CN(C)Cc2ccc3c(c2)OCO3)[C@@H](C)CN([C@@H](C)CO)C(=O)c2cc(NC(=O)NC3CCCCC3)ccc2O1`, the relative growth was inactive: 1.01. With `Cc1sc2[nH]cnc(=S)c2c1C` the figure was inactive: 0.958; with `C[C@@H]1CCCCO[C@H](CN(C)C(=O)Nc2ccc(C(F)(F)F)cc2)[C@H](C)CN([C@@H](C)CO)C(=O)c2cc(N(C)C)ccc2O1`, inactive: 0.964; with `C[C@@H]1CCCCO[C@@H](CN(C)Cc2ccc(Cl)c(Cl)c2)[C@@H](C)CN([C@H](C)CO)C(=O)c2cc(NC(=O)c3ccncc3)ccc2O1`, inactive: 1.01. The same measure for `COc1ccc(S(=O)(=O)N(C)C[C@@H]2OCCCC[C@H](C)Oc3ccc(NC(=O)Nc4ccc(C(F)(F)F)cc4)cc3C(=O)N([C@@H](C)CO)C[C@@H]2C)cc1`: inactive: 1.04; for `COc1ccc(NC(=O)Nc2ccc3c(c2)C(=O)N([C@@H](C)CO)C[C@H](C)[C@H](CN(C)CC2CCCCC2)OCCCC[C@@H](C)O3)cc1`: inactive: 1.02; for `CCCN1C[C@H](C(=O)O)CCC1=O`: inactive: 1.01. As for `C[C@H](CO)N1C[C@H](C)[C@@H](CN(C)Cc2ccc3c(c2)OCO3)Oc2ccc(NC(=O)Nc3ccc(C(F)(F)F)cc3)cc2CC1=O`, the relative growth was inactive: 0.988.

Turning to `N[C@H]1CCN(c2ccc(C(F)(F)F)cn2)C1`, the relative growth is inactive: 1.

On to `COc1ccc(CN(C)C[C@H]2Oc3c(NS(C)(=O)=O)cccc3C(=O)N([C@H](C)CO)C[C@@H]2C)cc1`, for which the relative growth is inactive: 0.989. In the case of `C[C@@H]1CN([C@H](C)CO)C(=O)c2cc(NC(=O)Nc3ccc(F)cc3)ccc2O[C@H]1CN(C)Cc1ccc(Oc2ccccc2)cc1`, the relative growth is inactive: 0.964. The same measure for `NCC(=O)CCC(=O)O`: inactive: 1.02. With `Cn1cnc(CCNC(=O)C[C@H]2CC[C@@H]3[C@H](COC[C@@H](O)CN3C(=O)Nc3ccc(Cl)cc3)O2)c1` the figure was inactive: 0.93. The same measure for `COc1ccc2c3c(n(c2c1)C)[C@H](CO)N(C[C@]13CN(C1)C(=O)CN1CCOCC1)C(=O)Nc1ccc(cc1)F`: inactive: 0.962; for `Cc1ccccc1N1CCN(S(=O)(=O)C[C@@]23CC[C@@H](C[C@@H]2NC(=O)[C@@H](N)CCS(C)(=O)=O)C3(C)C)CC1`: inactive: 0.984; for `COc1ccccc1-c1ccc2c(c1)O[C@@H](CN(C)CC1CCOCC1)[C@@H](C)CN([C@H](C)CO)S2(=O)=O`: inactive: 1.02. For `COc1cccc(C#Cc2cnc3c(c2)C(=O)N([C@@H](C)CO)C[C@H](C)[C@@H](CN(C)C(=O)C2CCOCC2)O3)c1`, the relative growth was inactive: 0.998. With `O=C1O[C@H](c2ccccc2)[C@H](c2ccccc2)N2[C@H]1[C@@H](C(=O)NC[C@@H](O)c1ccccc1)[C@]1(C(=O)Nc3ccc(C#CC4(O)CCCCCC4)cc31)[C@H]2c1ccccc1OCCO`, the relative growth was inactive: 1.04. Take `CNC[C@@H]1OCCCC[C@@H](C)Oc2ccc(NC(=O)Nc3cccc4ccccc34)cc2C(=O)N([C@@H](C)CO)C[C@H]1C`: the relative growth is inactive: 1.01. With `Cc1noc(C)c1S(=O)(=O)Nc1ccc2c(c1)C(=O)N([C@@H](C)CO)C[C@H](C)[C@@H](CN(C)Cc1ccc(C(F)(F)F)cc1)OCCCC[C@H](C)O2` the figure was inactive: 1.02. With `COc1ccc(CN(C)C[C@@H]2OCCCC[C@H](C)Oc3ccc(NC(=O)Nc4cccc5ccccc45)cc3C(=O)N([C@H](C)CO)C[C@@H]2C)cc1` the figure was inactive: 0.956. With `COc1ccc(S(=O)(=O)N(C)C[C@H]2Oc3ccc(NC(=O)c4ccncc4)cc3C(=O)N([C@@H](C)CO)C[C@H]2C)cc1`, the relative growth is inactive: 0.98. The same measure for `COc1ccc(NC(=O)Nc2ccc3c(c2)C(=O)N([C@H](C)CO)C[C@@H](C)[C@H](CN(C)C(=O)c2ccccc2)OCCCC[C@@H](C)O3)cc1`: inactive: 1.01; for `CCCOc1ccnc2c1c(=O)n(C)c(=O)n2C`: inactive: 1.05. For `CCCc1cc(=O)oc2cc3occ(-c4ccccc4)c3cc12`, the relative growth is inactive: 1.01. As for `C[C@@H]1CCCCO[C@H](CN(C)C(=O)Nc2ccccc2)[C@@H](C)CN([C@H](C)CO)C(=O)c2cc(NC(=O)NC3CCCCC3)ccc2O1`, the relative growth is inactive: 0.993. In the case of `COc1ccc(C(=O)Nc2ccc(CN3C(=O)[C@]4(O[C@H](CCO)[C@@H]([Si](C)(C)F)[C@@H]4C)c4ccccc43)cc2)cc1`, the relative growth was inactive: 0.916. For `COc1ccc(NC(=O)N(C)C[C@@H]2Oc3c(NC(=O)c4cnccn4)cccc3C(=O)N([C@H](C)CO)C[C@H]2C)cc1`, the relative growth is inactive: 1.01. The same measure for `C[C@@H]1CN([C@H](C)CO)S(=O)(=O)c2ccc(-c3cccnc3)cc2O[C@H]1CN(C)CC1CCOCC1`: inactive: 0.978; for `C[C@@H]1CCCCO[C@@H](CN(C)C(=O)Cc2ccccc2)[C@@H](C)CN([C@H](C)CO)C(=O)c2cc(NC(=O)Nc3cccc4ccccc34)ccc2O1`: inactive: 1.04; for `C[C@@H]1CN([C@@H](C)CO)C(=O)Cc2cc(NS(=O)(=O)c3cccs3)ccc2O[C@@H]1CN(C)S(=O)(=O)c1ccc(F)cc1`: inactive: 1.01. For `Cc1noc(C)c1NC(=O)N(C)C[C@@H]1Oc2ccc(NC(=O)C3CC3)cc2C(=O)N([C@@H](C)CO)C[C@H]1C`, the relative growth was inactive: 1.02. The same measure for `C[C@@H]1CN([C@H](C)CO)C(=O)c2cc(NC(=O)Nc3ccc4c(c3)OCO4)ccc2O[C@@H](C)CCCCO[C@H]1CN(C)S(=O)(=O)c1cccs1`: inactive: 1.04; for `Cc1ccccc1S(=O)(=O)N1C[C@@H](O)COC[C@H]2O[C@H](CC(=O)NCc3ccc(Cl)c(Cl)c3)CC[C@@H]21`: inactive: 0.995.

Consider `CNC(=O)Nc1ccc(C(=O)NC)cc1`, for which the relative growth was inactive: 0.995. With `C[C@H](CO)N1C[C@H](C)[C@H](CN(C)C(=O)Nc2ccc(C(F)(F)F)cc2)OCCCC[C@H](C)Oc2ccc(NS(=O)(=O)c3cccs3)cc2C1=O` the figure was inactive: 1.04; with `COc1ccc(CNC(=O)C[C@@H]2CC[C@H]3[C@@H](COc4ccc(NC(=O)C5CC5)cc4C(=O)N3C)O2)cc1`, inactive: 1.03.

Turning to `COc1ccc(CN(C)C[C@H]2Oc3ccc(NC(=O)Cn4cnnn4)cc3CC(=O)N([C@H](C)CO)C[C@@H]2C)cc1`, the relative growth is inactive: 1.01. Consider `COc1cc(C(=O)N2CCN(CCN3C(=O)c4cccc5cccc(c45)C3=O)CC2)cc(OC)c1OC`, for which the relative growth was inactive: 0.987. With `CN(CC=Cc1ccccc1)Cc1cccc2ccccc12.Cl` the figure was inactive: 0.9. On to `COc1ccccc1S(=O)(=O)N(C)C[C@@H]1Oc2cc(C#CCC(C)C)ccc2S(=O)(=O)N([C@@H](C)CO)C[C@@H]1C`, for which the relative growth is inactive: 0.995. For `COc1ccc(S(=O)(=O)Nc2cccc3c2O[C@@H](CN(C)Cc2ccncc2)[C@@H](C)CN([C@H](C)CO)C3=O)cc1`, the relative growth is inactive: 1.01. With `C[C@@H]1CN([C@H](C)CO)C(=O)c2cc(NC(=O)Nc3ccc(C(F)(F)F)cc3)ccc2O[C@@H](C)CCCCO[C@@H]1CN(C)C(=O)C1CCCCC1`, the relative growth is inactive: 1.03. For the compound `O=C(NCCN1CCOCC1)[C@@]1(CCS(=O)(=O)c2ccccc2)N=C(c2ccc(OCCCO)cc2)O[C@H]1c1ccccc1`, the relative growth is inactive: 1.01.

For `C[C@@H]1CN([C@@H](C)CO)C(=O)c2cc(C#CCC3CCCC3)cnc2O[C@@H]1CN(C)C(=O)c1cnccn1`, the relative growth was inactive: 1.05.

For the compound `C[C@@H]1CCCCO[C@H](CN(C)C(=O)Nc2ccc(C(F)(F)F)cc2)[C@H](C)CN([C@@H](C)CO)C(=O)c2cc(NC(=O)Nc3ccccc3)ccc2O1`, the relative growth is inactive: 1.03. The same measure for `O=C(CCCN1CCC(O)(c2ccc(Cl)cc2)CC1)c1ccc(F)cc1`: inactive: 1.02. Consider `C[C@@H]1CN([C@H](C)CO)C(=O)c2cc(NC(=O)Cc3cn(C)c4ccccc34)ccc2O[C@@H]1CN(C)Cc1ccc(C(F)(F)F)cc1`, for which the relative growth is inactive: 1.05.

On to `COc1ccc([Si](C)(C)[C@H]2[C@H](CC(=O)N(CCO)Cc3ccccc3)O[C@@]3(C(=O)N(C)c4c(Br)cc(C)cc43)[C@@H]2C)cc1`, for which the relative growth was inactive: 1.04. Consider `C[C@@H]1CN([C@H](C)CO)C(=O)c2cccc(NC(=O)Nc3ccc(F)cc3)c2O[C@@H]1CN(C)Cc1ccc(Cl)c(Cl)c1`, for which the relative growth is inactive: 1.03.

Turning to `CCc1nc2ccc(C(=O)N3CCN(S(=O)(=O)CC)CC3)cn2c1N(C=O)Cc1ccc(OC)cc1`, the relative growth is inactive: 1.01. The same measure for `CCNC(=O)C[C@H]1CC[C@H](NC(=O)C2CC2)[C@@H](CO)O1`: inactive: 1; for `CC(C)(C)c1ccc(NC(=O)N[C@H]2CCCc3ccccc32)cc1`: inactive: 1.03. With `O=C(O)C1OC(Oc2cc3oc(-c4ccccc4)cc(=O)c3c(O)c2O)C(O)C(O)C1O` (stereo not given) the figure was inactive: 1.05; with `O=C(NCCN1CCCC1)[C@H]1[C@H](CO)[C@H]2Cn3c(cccc3=O)[C@@H]1N2C(=O)NC1CCCC1`, inactive: 0.993; with `C[C@H](CO)N1C[C@H](C)[C@H](CN(C)S(=O)(=O)c2ccccc2)Oc2c(NS(=O)(=O)c3ccc(F)cc3)cccc2C1=O`, inactive: 1.02. Turning to `Cc1noc(C)c1S(=O)(=O)N(C)C[C@@H]1OCCCC[C@H](C)Oc2ccc(NC(=O)Nc3ccccc3)cc2C(=O)N([C@@H](C)CO)C[C@H]1C`, the relative growth was inactive: 1. With `Cc1noc(C)c1NC(=O)Nc1ccc2c(c1)C(=O)N([C@@H](C)CO)C[C@H](C)[C@H](CN(C)C(=O)NC(C)C)O2` the figure was inactive: 1.01; with `C[C@@H]1CCCCO[C@@H](CN(C)Cc2ccc(Cl)c(Cl)c2)[C@@H](C)CN([C@@H](C)CO)C(=O)c2cc(NS(C)(=O)=O)ccc2O1`, inactive: 0.983. The same measure for `COc1ccc(NC(=O)Nc2ccc3c(c2)C(=O)N([C@H](C)CO)C[C@@H](C)[C@@H](CN(C)Cc2ccncc2)OCCCC[C@H](C)O3)cc1`: inactive: 1.02.
